From the supplement of paper PMC12217912
Some of the results follow. Sequences were assembled here from the parent chain. Inactive controls read about 0.05.

B1: TEV protease; numbered along this chain (parent)
chain: MGESLFKGPRDYNPISSSICHLTNESDGHTTSLYGIGFGPFIITNKHLFRRNNGTLVVQSLHGVFKVKDTTTLQQHLVDGRDMIIIRMPKDFPPFPQKLKFREPQREERICLVTTNFQTKSMSSMVSDTSCTFPSGDGIFWKHWIQTKDGQCGSPLVSTRDGFIVGIHSASNFTNTNNYFTSVPKNFMELLTNQEAQQWVSGWRLNADSVLWGGHKVFMVKPEEPFQPVKEATQL

Variants of: B1
Experiment: raw area under fraction-flipped curve 0-4 h after induction (AUC4h, not background-subtracted), DNA-recorder readout of cleavage of the substrate (dimensionless); higher = more cleavage of the substrate by the protease variant
Settings: temperature: 34 °C; time window: 0-4 h after rhamnose induction
Description: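 In vivo DNA recorder in E. coli TOP10(DE3) ΔrhaA at 34 °C. Each TEVp single-site mutant (parent TEVp 0) is paired with a single-site variant of the 7-mer TEVs (canonical ENLYFQ|S). The substrate sits between flexible linkers in a Bxb1-sfGFP-TEVs-SsrA fusion, so cleavage stabilises Bxb1 and speeds flipping of a recombination array, read by NGS. The value is the raw area under the fraction-flipped curve over 0-4 h after rhamnose induction (AUC4h), with ≥20 reads per time point. It is not background-subtracted; inactive controls average about 0.047.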
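Note: Bxb1 expression induced with 0.2% (w/v) L-rhamnose at OD600 near 0.5, cultures sampled hourly, flipped fraction per protease–substrate barcode pair counted by paired-end Illumina sequencing.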

Row | Variant | area with substrate ENLYFQA | area with substrate ENLYFQC | area with substrate ENLYFQI | area with substrate ENLYFQL | area with substrate ENLYFQM | area with substrate ENLYFQN | area with substrate ENLYFQR | area with substrate ENLYFQS | area with substrate ENLYFQY | area with substrate ENLYFQD | area with substrate ENLYFQE | area with substrate ENLYFQF | area with substrate ENLYFQG | area with substrate ENLYFQH | area with substrate ENLYFQK | area with substrate ENLYFQT | area with substrate ENLYFQV | area with substrate ENLYFQW | area with substrate ENLYFQP | area with substrate ENLYFQQ
1 | Q75T | 0.0974 | 0.13 | 0.0545 | 0.0768 | 0.104 | 0.08 | 0.0527 | 0.101 | 0.0635 | – | – | – | – | – | – | – | – | – | – | –
2 | T30A | 0.0777 | 0.14 | 0.0581 | 0.0597 | 0.0987 | 0.103 | 0.0545 | 0.106 | – | 0.0706 | 0.0449 | 0.0571 | 0.107 | 0.0846 | 0.0804 | 0.0958 | 0.0809 | 0.0761 | – | –
3 | T72Y | 0.0771 | 0.0966 | 0.0483 | – | – | 0.0676 | 0.0568 | 0.0898 | 0.0842 | 0.108 | – | – | 0.141 | 0.0807 | 0.0735 | – | – | – | – | –
4 | I43M | 0.0772 | 0.0758 | 0.0478 | 0.0648 | 0.0987 | 0.0638 | – | 0.0857 | 0.0839 | – | – | 0.065 | 0.0636 | 0.0427 | 0.0571 | 0.0557 | – | 0.0669 | 0.0543 | –
5 | S17Y | 0.0968 | 0.113 | 0.0654 | 0.0623 | 0.0868 | 0.0492 | 0.0587 | 0.0985 | 0.0736 | – | – | 0.0703 | 0.114 | 0.0611 | 0.0631 | 0.0675 | 0.0661 | – | 0.0585 | 0.0657
6 | G54D | 0.0732 | 0.0716 | 0.059 | 0.0709 | 0.059 | 0.0591 | 0.0565 | 0.0709 | 0.0456 | 0.0562 | 0.0668 | – | 0.0716 | 0.0623 | 0.054 | 0.06 | 0.0608 | 0.0601 | 0.0539 | 0.0622
7 | I42T | 0.0629 | 0.0776 | 0.0555 | – | – | – | 0.0251 | 0.0604 | 0.0586 | – | 0.0491 | – | 0.0463 | 0.0479 | – | – | – | – | 0.0565 | –
8 | I42P | 0.025 | 0.0463 | – | 0.0411 | 0.0412 | 0.0428 | 0.0476 | 0.0455 | 0.0482 | 0.0389 | – | 0.0304 | – | – | 0.0403 | – | 0.0431 | 0.0515 | – | 0.0485
9 | N53E | 0.141 | 0.109 | 0.0684 | 0.0601 | – | 0.0883 | 0.0657 | 0.106 | – | – | – | – | – | – | – | 0.0621 | 0.0405 | – | 0.0484 | –
10 | V64S | 0.0978 | – | 0.0602 | – | 0.102 | 0.0794 | 0.0642 | 0.11 | – | – | – | – | – | 0.0747 | – | 0.0425 | – | 0.0622 | – | –
11 | G28V | 0.071 | 0.0856 | 0.0555 | 0.06 | 0.0852 | 0.0652 | 0.0594 | 0.0798 | 0.0829 | 0.0696 | – | 0.067 | 0.0734 | – | – | 0.0653 | – | – | 0.0543 | 0.0834
12 | Q59A | 0.0799 | 0.116 | – | 0.0701 | – | 0.0866 | 0.0623 | 0.108 | – | – | 0.0691 | – | 0.147 | 0.0747 | – | – | 0.0654 | – | – | –
13 | Q59T | 0.108 | 0.104 | 0.0595 | 0.0513 | – | – | 0.0567 | 0.104 | 0.0698 | 0.0845 | – | 0.0607 | 0.0957 | – | – | 0.0617 | – | 0.0684 | 0.0384 | –
14 | L22F | 0.0517 | 0.085 | 0.0543 | 0.0573 | 0.0577 | 0.0647 | 0.0456 | 0.0679 | 0.0464 | – | – | – | – | 0.0616 | 0.0445 | 0.0528 | – | 0.0612 | 0.0498 | 0.0565
15 | F65S | 0.119 | – | 0.0568 | 0.0651 | 0.0415 | – | 0.0314 | 0.0924 | 0.0817 | 0.0523 | – | – | – | 0.0642 | – | 0.0607 | 0.125 | – | 0.0734 | –
16 | F65Y | 0.13 | 0.0553 | 0.0687 | 0.0592 | 0.0829 | 0.084 | 0.0618 | 0.103 | – | – | – | – | 0.0897 | 0.092 | – | 0.0688 | 0.0571 | 0.0616 | 0.0548 | 0.0745
17 | C20K | 0.0495 | 0.0514 | 0.0447 | 0.0477 | 0.0518 | 0.0503 | 0.0401 | 0.0507 | 0.0316 | 0.0423 | 0.061 | 0.0509 | 0.0496 | 0.0497 | 0.0474 | 0.0433 | 0.0484 | 0.0558 | 0.0563 | 0.0377
18 | C20Y | 0.0562 | 0.0538 | 0.069 | 0.0436 | 0.0537 | – | 0.056 | 0.0608 | – | – | 0.0549 | – | – | – | 0.0574 | 0.0441 | 0.0428 | 0.0565 | – | –
19 | D69M | 0.0805 | 0.116 | 0.0531 | 0.0669 | – | 0.0627 | 0.0633 | 0.085 | 0.0708 | – | – | 0.0676 | 0.0779 | – | – | – | 0.0492 | 0.0549 | 0.063 | 0.0846
20 | G63K | 0.0918 | 0.11 | – | 0.0527 | 0.101 | – | – | 0.0954 | – | – | – | – | – | – | – | – | 0.0622 | 0.076 | 0.0268 | –
21 | T55H | 0.0778 | 0.115 | 0.0581 | 0.0744 | 0.078 | – | 0.0339 | 0.0994 | 0.074 | 0.081 | – | – | – | 0.0876 | – | 0.0734 | 0.0699 | 0.0938 | 0.0617 | –
22 | G39P | 0.0476 | 0.0407 | – | 0.041 | 0.0403 | 0.0373 | 0.0416 | 0.041 | – | 0.0558 | – | – | 0.0978 | 0.0461 | – | 0.0423 | 0.0356 | 0.0417 | 0.037 | –
23 | L61Q | 0.099 | 0.13 | 0.0578 | 0.0577 | – | 0.0535 | 0.0565 | 0.111 | 0.0635 | – | 0.0789 | – | 0.102 | 0.0775 | 0.0585 | 0.0619 | – | – | 0.0556 | –
24 | T71D | 0.0646 | 0.0868 | – | – | – | – | – | 0.0816 | 0.0731 | 0.0585 | – | – | – | – | – | 0.0647 | – | 0.0588 | 0.0517 | –
25 | H76P | 0.0619 | 0.0612 | 0.0383 | 0.0592 | 0.0516 | – | 0.0385 | 0.0581 | 0.056 | 0.0547 | 0.0607 | – | 0.0518 | 0.051 | 0.062 | 0.0647 | 0.0513 | – | 0.0564 | –
26 | K66T | 0.0543 | 0.176 | – | 0.0665 | 0.0872 | 0.0576 | 0.0574 | 0.108 | 0.0858 | – | – | – | – | 0.0717 | 0.058 | 0.066 | – | – | – | 0.0682
